Experimental data taken from US20240229098A1, “BIOLUMINOGENIC ASSAY FOR DRUG-RESISTANCE BACTERIA DETECTION” (priority 2021, published 2024).

How the values were obtained:
[1] = system: E. coli expressing TEM-1 (E. coli/TEM-1); conditions: for lowest number of E. coli/TEM-1 detected: 10 μM probe, 60 min, PBS pH 7.4
[2] = system: E. coli expressing IMP-1; conditions: 10 μM probe, 60 min, PBS pH 7.4
[3] = system: clinically isolated E. coli strain producing TEM-type β-lactamase (E. coli/TEM); test: Bioluminescent detection of intact clinical isolate E. coli/TEM; conditions: intact bacteria
[4] = system: E. coli/TEM; test: Inhibitor test with E. coli/TEM and D-Bluco; conditions: inhibitor 2 mg/mL, 37° C. 1 h pretreatment, D-Bluco 10 μM

SMILES | lowest number of E. coli/TEM-1 detected [1] | bioluminescence signal of D-Bluco with E. coli/TEM-1 in the presence of inhibitor [4] | further results
CN(C)c1ccc(/N=N/c2ccc(C(=O)NCCCCCC(=O)NC3C(=O)N4C(C(=O)O)=C(COc5ccc6nc(C7=N[C@@H](C(=O)O)CS7)sc6c5)C[S+]([O-])C34)cc2)cc1 (stereo partly drawn) [D-Bluco, 3-(((2-((S)-4-carboxy-4,5-dihydrothiazol-2-yl)benzo[d]thiazol-6-yl)oxy)methyl)-7-(6-(4-((E)-(4-(dimethylamino)phenyl)diazenyl)benzamido)hexanamido)-8-oxo-5-thia-1-azabicyclo[4.2.0]oct-2-ene-2-carboxylic acid 5-oxide] | 10^2 c.f.u/mL | – | lowest number of E. coli/TEM-1 detected per assay volume ([1]; in a 100 μL volume, within an hour): 10 cfu; lowest concentration of IMP-1 expressing bacteria detected [2]: 10^4 c.f.u/mL; concentration of clinically isolated E. coli/TEM detected ([3]; after an hour incubation): 10^6 cfu/mL; concentration of clinically isolated E. coli/TEM detected ([3]; within 4 hours incubation): 10^5 cfu/mL
O=C(Cc1ccccc1)NC1C(=O)N2C(C(=O)O)=C(COc3ccc(COc4ccc5nc(C6=N[C@@H](C(=O)O)CS6)sc5c4)cc3)C3(CC3)SC12 (stereo partly drawn) [O-Bluco, 4-((4-(((2-((S)-4-carboxy-4,5-dihydrothiazol-2-yl)benzo[d]thiazol-6-yl)oxy)methyl)phenoxy)methyl)-7-oxo-8-(2-phenylacetamido)-2-thia-6-azaspiro[bicyclo[4.2.0]octane-3,1′-cyclopropan]-4-ene-5-carboxylic acid] | 10^5 c.f.u/mL | – | –
NC(=O)[C@@H]1CC[C@@H]2CN1C(=O)N2OS(=O)(=O)O [avibactam] | – | abolished | –
O=C(O)[C@H]1/C(=C/CO)O[C@@H]2CC(=O)N21 [clavulanate] | – | abolished | –
